Source: the RNAGym collection of RNA variant scans (doi:10.1073/pnas.2313332121)
Variants at the floor of the assay are shown more often than the library holds them.

B1: TPR 5TU (parent)
chain: GGAUCUUCUCGAUCUAACAAAAAAGACAAAUCUGCCACAAAGCUUGAGAGCAUCUUCGGAUGCAGAGGCGGCAGCCUUCGGUGGCGCGAUAGCGCCAACGUUCUCAACUAUGACACGCAAAACGCGUGCUCCGUUGAAUGGAGUUUAUCAUG

Variants of: B1
Test: polymerase ribozyme fitness, log enrichment relative to wild type (log ratio); higher = more active; in vitro selection for triplet polymerase activity
Summary of the method: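 For each subunit of a heterodimeric triplet polymerase ribozyme, a mutant library was built by PCR and transcribed, then taken through a single in vitro selection round in triplicate. Selection involved annealing to a biotinylated primer, the partner subunit and triplets, incubation frozen at −7 °C, gel excision of extended constructs, capture on streptavidin beads and RT-PCR. Genotypes were retained after Illumina sequencing of inputs and outputs only with ≥10 input reads and ≥1 read in each output. Fitness is defined as the logarithm of a genotype's enrichment relative to wild-type enrichment, using inverse-variance-weighted averages across replicates, with the logarithm taken to base 2.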

Polymerase ribozyme fitness (log ratio), ≤ -4.2:
GGAUCUUCUCGAUCUAACAAAAAAGACAAAUCUGCCACAAAGCGUGAGAGCAUCUUCGGAUGCAGACGCGGCAGCCUUCGGUGGCGCGAUAGCGCCAACGUUCUCAUCUAUGACACGCAAAACGCGUGCUCCGUUGAAUGGAGUUUAUCAUG
GGAUCUUCUCGAUCUAACAAAAAAGACAAAUCUGCCACAAAGCGUGAGAGCAUCUUCGGAUGCAGAGACGGCAGCCUUCGGUGGCGCGAUACCGCCAACGUUCUCAACUAUGACAGGCAAAACGCGUGCUCCGUUGAAUGGAGUUUAUCAUG
GGAUCUUCUCGAUCUAACAAAAAAGACAAAUCUGCCACAAAGCGUGAGAGCAUCUUCGGAUGCAGAGGCGGCAGCCUUCGUCGGCGCGAUAGCGCCAACGUUCUCAACUAUGACACGCAAAACGCGUGCUCCGUUGAAUGGAGUUUAUUAUG
GGAUCUUCUCGAUCUAACAAAAAAGACAAAUCUGCCACAAAGCGUGAGAGCAUCUUCGGAUGCAGAGGCGGCAGCCUUCGGUGGCUCGAUAACGCCAACGUUCUCAACUAUGACACGCAAAACGCGUGCUCCGUUGAAUGGAGUUUAUCAUG
GGAUCUUCUCGAUCUAACAAAAAAGACAAAUCUGCCACAAAGCGUGAGAGCAUCUUCGGAUGCAGAGGCGGCAGCCUUCGGUGGCGCGAUAGCACCAACGGUCUCAACUAUGACACGCAAAACGCGUGCUCCGUUAAAUGGAGUUUAUCAUG
GGAUCUUCUCGAUCUAACAAAAAAGACAAAUCUGCCACAAAGCGAGAGAGCAUCUUCGGAUGCAGAGGCGGCAGCCUUCAGUGGCGGGAUAGCGCCAACGUUCUCAACUAUGACACGCAAAACGCGUGCUCCGUUGCAUGGAGUUUAUCAUG
GGAUCUUCUCGAUCUAACAAAAAAGACAAAUCUGCCACAAAGCGGGAGAGCAUCUUUGGAUGCAGAGGCGGCAGCCUUCGGUGGCGGGAUAGCGCUAACGUUCUCAACUAUGAUACGCAAAACGGGUGCUCCGUUGAAUGGAGUUUAUCCUG
GGAUCUUCUCGAUCUAACAAAAAAGACAAAUCUGCCACAAAGCGUGAGAGCAUCGUCGGAUGCAGAGGCGGCAGUCUUCGGUGGCGCGAUAGCGCCAACGUUCUCAACUAUGACACGCAAAACGCGUGCUCCGUUGAAUGGAGUUUAUCAUG
GGAUCUUCUCGAUCUAACAAAAAAGACAAAUCUGCCACAAAGCGUGAGAGCAUCUACGGAUGCAGAGGCGGCAGCCUUCGGUGGCGGGAUAGCGCCAACGUUCUCAACUAUGACACGCAAAACGCGUGCUCCGUAGAAUGGAGUGUAUCAUG
GGAUCUUCUCGAUCUAACAAAAAAGACAAAUCUGCCACAAAGCGUGAGAGCAUCUGCGGAUGCAGAGGCGGCAGCCUUCGGUGGCGCGAUUGCGCCAACGUUCUCAACUAUGACACGCAAAACCCGUGCUCCGUUGAAUGGAGUUUAUCAUG
GGAUCUUCUCGAUCUAACAAAAAAGACAAAUCUGCCACAAAGCGUGAGAGCAUCUGUGGAUGCAGCGGCGGCAGCCUUCGGUGGCGUGAUAGCGCCAACGUUCUCGACUAUGACACGCAAAACGCGUGCUCCGUUGAAUGGUGUUUAUCAUG
GGAUCUUCUCGAUCUAACAAAAAAGACAAAUCUGCCACAAAGCUAGAGCGCAUCUUCGGAUGCAGAGGCGGCAGCCUUCGGUGGCGCGAUAGCGCCAACGUUCUCAACUAUGACACGCAAAACGCGUGCUCCGUUGAAUGGAGUUUAUCAUG
GGAUCUUCUCGAUCUAACAAAAAAGACAAAUCUGCCACAAAGCUAGAGAGCCUCUUCGGAUGCAGAGGCGGCAGUCUUUGGUGGCGAGAUAGCGCCAACGUUCUCAACUAUGACACGCAAAACGCUUGCUCCGUUGAAUGGAGUUUAUCAUG
GGAUCUUCUCGAUCUAACAAAAAAGACAAAUCUGCCACAAAGCUAGAGAGCCUCUUCGGAUGCAGAGGCGGCAGCCUUCGGCGGCGCGAUAGCGCCAACGUUCUCAACUAUGACACGCAAAACGCGUGCUCCGUUGAAUGGAGUUUAUCAUG
GGAUCUUCUCGAUCUAACAAAAAAGACAAAUCUGCCACAAAGCUAGAGAGCGUCUUCGGAUGCAGAGGCGGCGGCCUUCGGUGGCGCGAUAGCGCGAACGUUCUCAACUAUGACACGCAAAACGCGUGCUCCGUUGAAUGGAGUUUAUCAUG
GGAUCUUCUCGAUCUAACAAAAAAGACAAAUCUGCCACAAAGCUAGAGAGCAUCUUCGGGUGCAGAGGCGGCAGCCUUCGGUGGCGCGAUAGCGCCAACGUUCUCAACUAUGACAGGCAAAACGCGUGCUCCGUUGAAAGGGGUUUAUCAUG
GGAUCUUCUCGAUCUAACAAAAAAGACAAAUCUGCCACAAAGCUAGAGAGCAUCUUCGGAUGCAGAGGCGGCAGCCUUCGGUGGCGCGAUGGCGCCAACGUUCUCAACUAUGACACGCUAAACGCGUGCUCCGUUGAAUGGAGUUUAUCAUG
GGAUCUUCUCGAUCUAACAAAAAAGACAAAUCUGCCACAAAGCUAGAGAGCAUGUGCGGAUCCAGAGGCGGCAGCCUUCGGUGGAGCGAUAGCGCCAACGUUCUCAACUAUGACACGCAAAACGCGUGCUCCGUUGAAUGGAGGUUAUCAUG
GGAUCUUCUCGAUCUAACAAAAAAGACAAAUCUGCCACAAAGCUAGAGAGCAUUUUCGGAUGCAGAGGCGGCAGCCUUCGGUGGCGCGAUAGCGGCCACGUUCUCAACUAUGACACGCAAAACGCGUGCUCCGUUGAAUGGAGUUCAUCGUG
GGAUCUUCUCGAUCUAACAAAAAAGACAAAUCUGCCACAAAGCUAGAGAGCAUCUUAGGAUGCAGAGGCGGCAGCCUUCGGUGGCGCGAUAGCGCCAAAGUUCUCAACUAUGACAUGCAAAACGCGUGCUCCGUUGAAUGGAGUUUAUCAUG
GGAUCUUCUCGAUCUAACAAAAAAGACAAAUCUGCCACAAAGCUAGAGAGCAUCUUUGGUUGCAGAGGCGGCAGCCUUCGGUGGCGCGAUAGCGCCAACGUUCUCAACUAUGACACGCAAAACACGUGCUCCGUUGAAUGGAGUUUAUCGUG
GGAUCUUCUCGAUCUAACAAAAAAGACAAAUCUGCCACAAAGCUAGAGAGCAUCUUCGGAUGAAGAGGCGGCAGCCUUCGGUGGCGCGAUAGCGCCAACGUUCUCAACUAUGACUCGGAAAACGCGUACUCCGUUGAAUGGAGUUUAUCAUG
GGAUCUUCUCGAUCUAACAAAAAAGACAAAUCUGCCACAAAGCUAGAGAGCAUCUUCGGAUGUAGAGGCGGCAGCCUUCGGUGUAGCGAUAGCGCCAACGGUCUCAACUAUGACACGCAAAACGCGUGAUCCGUUGAAUGGAGUUUAUCAUG
GGAUCUUCUCGAUCUAACAAAAAAGACAAAUCUGCCACAAAGCUAGAGAGCAUCUUCGGAUGCAGAGGCGGUUGCCUUCGGUGGCGCAAUAGCGCCAACGUUCUAAACUAUGGCACGCAAAACGCGUGCUCCGUUGAAUGGAGUUUAACAUG
GGAUCUUCUCGAUCUAACAAAAAAGACAAAUCUGCCACAAAGCUAGAGAGCAUCUUCGGAUGCAGAGGCGGCAGGCUUCGGUGGCGCGAUAGCGCCAACGUUCUCAACUAUGACACGGAAAACGCGUGCUCCGUUGAAUGGAGUUUAUCAUG
GGAUCUUCUCGAUCUAACAAAAAAGACAAAUCUGCCACAAAGCUAGAGAGCAUCUUCGGAUGCAGAGGCGGCAGCUUUCGGUGGCGCGAUAGCGCCAUCCGUCUCUACUAUGACACGCAAAACGCGUGCUCCGUUGAAUGGAGUUUAUCGUG
GGAUCUUCUCGAUCUAACAAAAAAGACAAAUCUGCCACAAAGCUAGAGAGCAUCUUCGGAUGCAGAGGCGGCAGCCUUCGGUGGCGCGAUAGUGCCAACGUUCUCAACUAUGACACGCAAAACGCGUGCUCCGUUGAAUGGACUUUAUCAUG
GGAUCUUCUCGAUCUAACAAAAAAGACAAAUCUGCCACAAAGCUAGAGAGCAUCUUCGGAUGCAGAGGCGGCAGCCUUCGGUGGCGCGAUAGCGCCAACGUUCUCAAUUAUGACACGCAAAACGCGUGCUCCGUUGAAUGGAGUUUAUCAUG
GGAUCUUCUCGAUCUAACAAAAAAGACAAAUCUGCCACAAAGCUAAAGAGCAUCUUCGGAUGCAGAUGCGGCAGCCUUCGGUGGCGCGAUAGCGCCAACGUUCUCAACUAUGACACGCAAAGCGCGUGCUCCGUUGAAUGGAGUUUAUCAUG
GGAUCUUCUCGAUCUAACAAAAAAGACAAAUCUGCCACAAAGCUAGAGACCAUCUUCGGAUGCAGAGGCGGCAGCCUUCGGUGGCGAGAUAGCGCCAACGUUCUCACCUAUGACACGCAAAACGGGUGCUCCGUUGAAUGGAGUUUAUCAUG
GGAUCUUCUCGAUCUAACAAAAAAGACAAAUCUGCCACAAAGCUAGAGAGCAUCUUCGAAUGCAGAGGCGGCAGCCUUCGGUGGCGCGAUAGCGCCAACGUUCUCAACUAUGACACGCAAAACGCGUGCUCCGUUGAAUCGAGUUUAUCAUG
GGAUCUUCUCGAUCUAACAAAAAAGACAAAUCUGCCACAAAGCUAGAGAGCAUCUUCGUAUGCAGAGGCGGCGGCCUUCAGUGGCCCGAUUACGCCAACGUUCUCGACUAUGACACGCAAAACGCGUGCUCCGUUAAAUGGCGUUUAUCAUG
GGAUCUUCUCGAUCUAACAAAAAAGACAAAUCUGCCACAAAGCUAGAGAGCAUCUUCGGAUGCAGAGGCGGCAGCCUUCGGUGGCGCGAUAUCGCCAACGGUCUCAACUAUGACACGCAAAACGCGUGCUCCGUUGAAUGGAGUUUAUCAUG
GGAUCUUCUCGAUCUAACAAAAAAGACAAAUCUGCCACAAAGCUAGAGAGCAUCAUCGGAUGCAGACGCGGCAGCCUUCGGUGGCGCGAUAGCGCCAACGUUCUCAACUAUGACACGCAAAACGCGUGCUCCGUUGAUUGGAGUUUAUCAUG
GGAUCUUCUCGAUCUAACAAAAAAGACAAAUCUGCCACAAAGCUAGAGAGCAUCAUCGGAUGCAGAGGCGUCAGCCUUCGGUGGCGCGAUAGCGCCAACGUUCUCAACUAUGACACGCAAAACGCGUGCUCCGUUGAAUGGAGUUUAUCAUG
GGAUCUUCUCGAUCUAACAAAAAAGACAAAUCUGCCACAAAGCUAGAGAGCAUCGUCGGAUGCAGAGGGGGCAGCCUUCGGUGGCUCGAUAGCGCCAACGUUCUCAACUGGGACACGCAAAACGCGUGCUCCGUUGAAUGGAGUUUAUCAUG
GGAUCUUCUCGAUCUAACAAAAAAGACAAAUCUGCCACAAAGCUAGAGAGCAUCUUCGGAUGCAGAGGCGGCAGCCUUCGGUGGCGCGAUAGCGCCAACGUUCUCAACUAGGACACGCAAAACGCGUGCUCCGUUGAAUGGAGUUUAUCAUG
GGAUCUUCUCGAUCUAACAAAAAAGACAAAUCUGCCACAAAGCUCGAGAGUAUCUUCGGAUGCAGAGGCGGCACCCUUCGGUGGCGCGAUAGAGCGAACGUGCUCAACUAUGACACGCAAAACGCGUGCUCCGUUGAAUGGAGUUUAUCAUG
